{
  "source": "PubChem BioAssay AID1345082",
  "about": "(National Center for Advancing Translational Sciences (NCATS), 2018)",
  "note": "In all, about 94,000 compounds went through this assay and about 4,000 (4.3%) were called active. Inconclusive means that the source gave no clear call. Such entries were picked first, then a sample of the others. Calls come from the whole dose curve; as a rule, active = well fitted inhibition curve with a large enough effect; inconclusive = small, poorly fitted or top-dose-only effect; inactive = no such curve, though single readings can be large or run the other way. Where the call is inconclusive, the potency comes from a doubtful curve fit. Potency is the fitted concentration of half-maximal effect; tags give direction and shape of the fitted curve.",
  "data": [
    {"test": "Cytotoxic Profiling in NIH 3T3 Cell Line of Diverse Libraries Using Quantitative High-Throughput Screening; note: nearly all actives have a fitted effect of over 55% in size", "conditions": "NIH 3T3 viability, CellTiter-Glo ATP luminescence, 48-72 h; series mostly up to 96.7 µM", "summary_of_the_method": "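Cells were seeded at 400 per well, treated with pin-transferred compound, and kept 48 or 72 hr at 37 °C before CellTiter-Glo addition and luminescence imaging of cellular ATP.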", "values": [
      {"smiles": "O=C1CCN(Cc2ccncc2)CCCC(C(=O)N2CCc3ccccc32)CCN1", "note": "(stereo not drawn)", "Potency": "inactive"},
      {"smiles": "COc1ccc(-c2nc(C3CC3)nc3c2CCN(Cc2cc(C)on2)CC3)cc1", "Potency": "inactive"},
      {"smiles": "CC1=C[C@@H](CNC(C)C)[C@H](C(C)C)C[C@H]1Cc1nnc(-c2ccc(C)cc2)o1", "Potency": "active: 50.1 µM"},
      {"smiles": "Cc1ccc(C)c(C(=O)N2CCN(C(=O)c3nnn4c3COC(c3ccc(Cl)cc3)C4)CC2)c1", "note": "(stereo not drawn)", "Potency": "inconclusive: 15.8 µM [inhibitor, full curve, poor fit]"},
      {"smiles": "OC1(CN2CCN(CCc3ccccn3)CC2)CNCCOC1", "note": "(stereo not drawn)", "Potency": "inactive"},
      {"smiles": "Cc1ccc(-c2cc(N3CCC(CNC(=O)c4ccc(N(C)C)cc4)CC3)n[nH]2)cc1", "Potency": "inactive"},
      {"smiles": "Cc1ccc(Nc2ccnc(N3CCC(N[S+](=O)([O-])c4ccc(C)cc4)CC3)n2)cc1", "Potency": "active: 31.6 µM"},
      {"smiles": "NC(=O)CN1C(=O)CO[C@H]2CN(CCCc3ccccc3)C[C@H]21", "Potency": "inconclusive: 89.1 µM [inhibitor, partial curve, poor fit]"},
      {"smiles": "COc1ccc(CN2CCNc3cnc(Nc4ccccc4)cc3C2)cc1", "Potency": "inconclusive: 56.2 µM [inhibitor, partial curve, poor fit]"},
      {"smiles": "COc1cccc(N2CC(C(=O)NCc3ccc4c(c3)OCO4)NC2=O)c1", "note": "(stereo not drawn)", "Potency": "inconclusive: 70.8 µM [inhibitor, partial curve, poor fit]"},
      {"smiles": "Cc1noc(-c2cccc(OC3CN(C(=O)CCCc4ccccc4)C3)c2)n1", "Potency": "inconclusive: 44.7 µM [inhibitor, partial curve, poor fit]"},
      {"smiles": "COc1ccc(CCNC(=O)c2nnn3cc(-c4ccccc4)[nH]c(=O)c23)cc1OC", "Potency": "inactive"},
      {"smiles": "O=C(c1ccc(Cl)cc1)N1CCN(Cc2ccccc2-c2cccnc2)CC1", "Potency": "inconclusive: 50.1 µM [inhibitor, partial curve, poor fit]"},
      {"smiles": "CN1CCN(c2cc(=O)c3ccnc(-c4ccc(CO)cc4)c3o2)CC1", "Potency": "inconclusive: 7.94 µM [inhibitor, full curve, poor fit]"},
      {"smiles": "CNC(=O)CCn1ncc2cc(OCc3ccccc3-c3ccccc3OC)ccc21", "Potency": "active: 89.1 µM"},
      {"smiles": "Cc1cccc(-n2nc(-c3c(C)nc4scc(CC(=O)NCCC(C)C)n4c3=O)cc2C)c1", "Potency": "inconclusive: 44.7 µM [inhibitor, partial curve, poor fit]"},
      {"smiles": "Cc1ccc(CNC(=O)c2c(C)sc3ccn(CC(C)C)c(=O)c23)o1", "Potency": "inactive"},
      {"smiles": "CN(C)c1cccc(C(=O)N2CCN(c3cc(-c4ccc(Cl)cc4)[nH]n3)CC2)c1", "Potency": "inconclusive: 10 µM [inhibitor, full curve, poor fit]"},
      {"smiles": "Cc1ccncc1C(=O)N1CCC(Oc2ccccc2-c2nc(C3CC3)no2)C1", "note": "(stereo not drawn)", "Potency": "inactive"},
      {"smiles": "COCC1CN(Cc2cccc(OC(F)(F)F)c2)CC12CCNCC2", "note": "(stereo not drawn)", "Potency": "inconclusive: 50.1 µM [inhibitor, partial curve, poor fit]"},
      {"smiles": "O=C(c1ccccc1)N1CCC2(CC1)CC(N(Cc1ccccc1)C1CC1)CCO2", "note": "(stereo not drawn)", "Potency": "inconclusive: 50.1 µM [inhibitor, partial curve, poor fit]"},
      {"smiles": "CN(Cc1cccn1C)C(=O)Nc1ccc(Cl)cc1", "Potency": "inconclusive: 56.2 µM [inhibitor, partial curve, poor fit]"},
      {"smiles": "O=C(NCc1ccccc1)NC[C@H]1Cn2cc(-c3ccccc3)nc2CO1", "Potency": "inconclusive: 100 µM [inhibitor, single point]"},
      {"smiles": "COc1ccc(-c2ccc(C(=O)Nc3cccc(Cl)c3)cc2)nn1", "Potency": "inconclusive: 44.7 µM [inhibitor, partial curve, poor fit]"},
      {"smiles": "Fc1ccc(CN2CCNc3cnc(OCc4cccnc4)cc3C2)cc1F", "Potency": "inconclusive: 56.2 µM [inhibitor, partial curve, poor fit]"},
      {"smiles": "O=C(c1cnc2n[nH]c(-c3ccccc3)c2n1)N1CCN(c2ccccn2)CC1", "Potency": "inconclusive: 89.1 µM [inhibitor, partial curve, poor fit]"},
      {"smiles": "Cc1ccc(CNC(=O)N2CCCCCNC(=O)CC2c2ccccc2)cc1", "note": "(stereo not drawn)", "Potency": "inactive"},
      {"smiles": "Cc1cnc(C(=O)N[C@@H]2CCC[C@@H]2C(=O)NCc2ccccc2)cn1", "Potency": "inactive"},
      {"smiles": "CNCCNC(=O)C1CCN(c2nc(-c3ccccc3)nc3c2CCC3)CC1", "Potency": "inconclusive: 22.4 µM [inhibitor, full curve, poor fit]"},
      {"smiles": "N#Cc1cccc(-c2c(C(=O)NCc3ccccc3F)nc3sccn23)c1", "Potency": "inactive"},
      {"smiles": "Cc1cccc(OCCc2noc(C3CCCN3C(=O)C3CCCC3)n2)c1", "note": "(stereo not drawn)", "Potency": "inconclusive: 50.1 µM [inhibitor, partial curve, poor fit]"},
      {"smiles": "O=C(C1CCCN([S+](=O)([O-])c2cccc(C(F)(F)F)c2)C1)N1CCC(c2ccccc2)CC1", "note": "(stereo not drawn)", "Potency": "inconclusive: 35.5 µM [inhibitor, partial curve]"},
      {"smiles": "COc1ccc(CC2CCOC3(CCN(C(=O)Nc4ccccc4F)CC3)C2)cc1", "note": "(stereo not drawn)", "Potency": "inconclusive: 44.7 µM [inhibitor, partial curve, poor fit]"},
      {"smiles": "CCC1Oc2ccc(NC(=O)c3c(F)cccc3F)cc2CN(Cc2ccc(F)cc2Cl)C1=O", "note": "(stereo not drawn)", "Potency": "inconclusive: 28.2 µM [inhibitor, partial curve]"},
      {"smiles": "O=C(NCc1c[nH]c2ncccc12)c1ccccc1", "Potency": "inconclusive: 3.16 µM [inhibitor, full curve, poor fit]"},
      {"smiles": "CCn1cc(-c2ccc(OC)cc2)cc1C(=O)NC(C)c1cccnc1", "note": "(stereo not drawn)", "Potency": "inactive"},
      {"smiles": "CCCC(=O)N1CC2(CCCN2CC2CC2)Cc2ccccc21", "note": "(stereo not drawn)", "Potency": "inconclusive: 79.4 µM [inhibitor, partial curve]"},
      {"smiles": "COc1ccc2nc(C[C@@H]3C[C@@H](C(C)C)[C@H](CNC(=O)CCCC(=O)O)C=C3C)[nH]c2c1", "Potency": "inactive"},
      {"smiles": "CS(=O)(=O)N1CCCN(Cc2cn[nH]c2-c2cccs2)CCNC(=O)CC1c1ccccc1", "note": "(stereo not drawn)", "Potency": "inactive"},
      {"smiles": "CN1CCN(c2ccc(-c3cccc(NC(=O)C4CCCCC4)c3)nn2)CC1", "Potency": "inconclusive: 50.1 µM [inhibitor, partial curve, poor fit]"},
      {"smiles": "CC(O)c1cc2n(n1)CCCN(Cc1cccc(OC3CCCC3)c1)C2", "note": "(stereo not drawn)", "Potency": "inconclusive: 89.1 µM [inhibitor, single point]"},
      {"smiles": "O=C(CN1CCCn2nc(CO)cc2C1)Nc1nnc(C2CCC2)s1", "Potency": "inactive"},
      {"smiles": "O=C1CCN(S(=O)(=O)c2ccccc2)CCCN(Cc2ccc(C(F)(F)F)cc2)CCN1", "Potency": "inconclusive: 39.8 µM [inhibitor, partial curve, poor fit]"},
      {"smiles": "COc1ccccc1CNC(=O)[C@@H](C)C1CC[C@@]2(C)CC[C@H](NC(=O)C3CCCCC3)[C@@H](C)[C@@H]2[C@H]1O", "note": "(stereo partly drawn)", "Potency": "inconclusive: 39.8 µM [inhibitor, partial curve, poor fit]"},
      {"smiles": "NCCn1cc(C(=O)N2CC[C@@H](c3ccc4c(c3)OCO4)[C@H](O)C2)nn1", "Potency": "inconclusive: 17.8 µM [inhibitor, full curve, poor fit]"},
      {"smiles": "CCN(CC)Cc1nc(C2(O)CCN(Cc3ccccc3O)CC2)cs1", "Potency": "inconclusive: 100 µM [inhibitor, partial curve]"},
      {"smiles": "O=C1NCCCc2[nH]c(CCSCc3ccc(Cl)cc3)nc21", "Potency": "inconclusive: 79.4 µM [inhibitor, partial curve, poor fit]"},
      {"smiles": "CC(C)CCN1CCC2(CC1)CN[S+](=O)([O-])c1cccnc1O2", "Potency": "inactive"},
      {"smiles": "O=S(=O)(c1ccccc1Cl)N1CCCC(CO)(Cc2cccc(Cl)c2)C1", "note": "(stereo not drawn)", "Potency": "inconclusive: 50.1 µM [inhibitor, partial curve, poor fit]"},
      {"smiles": "O=C(C1CCCN1C(=O)Nc1ccccc1)N1CCCC(c2nc3ncccc3[nH]2)C1", "note": "(stereo not drawn)", "Potency": "inactive"},
      {"smiles": "COCCNC(=O)c1ccc(OC2CCN(Cc3cccc4c3OCO4)CC2)c(Cl)c1", "Potency": "inconclusive: 56.2 µM [inhibitor, partial curve, poor fit]"},
      {"smiles": "COc1cccc(CC(=O)N2CCC(CC3CC3)(NS(C)(=O)=O)CC2)c1", "Potency": "inactive"},
      {"smiles": "CSc1ccc(-c2nc(CN3CCCC(CO)C3)c(C)o2)cc1", "note": "(stereo not drawn)", "Potency": "inconclusive: 56.2 µM [inhibitor, partial curve, poor fit]"},
      {"smiles": "Cc1cccc(-c2cccc(CN3CCC(NC(=O)C4CC4)CC3)c2)c1", "Potency": "inconclusive: 100 µM [inhibitor, partial curve, poor fit]"},
      {"smiles": "COc1ccc(CCNC(=O)c2noc(-c3ccc(C)cc3)n2)cc1OC", "Potency": "inconclusive: 44.7 µM [inhibitor, partial curve, poor fit]"},
      {"smiles": "CC(=O)NC1(C)CCN(Cc2ccc(-c3ccc4c(ccn4C)c3)cc2)C1", "note": "(stereo not drawn)", "Potency": "inconclusive: 56.2 µM [inhibitor, partial curve, poor fit]"},
      {"smiles": "CSc1cccc(NC(=O)N[C@H]2CCN3C(=O)[C@H](CC4CCCCC4)NC(=O)[C@@H]3C2)c1", "Potency": "inconclusive: 63.1 µM [inhibitor, partial curve, poor fit]"},
      {"smiles": "CN(Cc1ccccc1)Cc1cc(CC2(NCc3ccc(F)cc3)COC2)no1", "Potency": "inconclusive: 100 µM [inhibitor, partial curve]"},
      {"smiles": "Cc1ccc(C(=O)N2CCCc3nc(C)nc(-c4ccc(O)cc4)c3C2)cc1", "Potency": "inconclusive: 50.1 µM [inhibitor, partial curve, poor fit]"},
      {"smiles": "CCc1noc(-c2cn(C3CCCN(C(=O)c4cccc(Cl)c4)C3)nn2)n1", "note": "(stereo not drawn)", "Potency": "inconclusive: 70.8 µM [inhibitor, single point]"},
      {"smiles": "CN(Cc1ccc(F)cc1)C(=O)C1(c2ccc(Cl)cc2)CCOCC1", "Potency": "inconclusive: 50.1 µM [inhibitor, partial curve, poor fit]"},
      {"smiles": "COc1ccc(Nc2ccnc(N3CCCC(C(=O)N4CCC(Cc5ccccc5)CC4)C3)n2)cc1", "note": "(stereo not drawn)", "Potency": "active: 28.2 µM"},
      {"smiles": "CC(C)C[C@H](NC(=O)c1csc2nc(-c3cccc(C(F)(F)F)c3)cn12)C(N)=O", "Potency": "inconclusive: 50.1 µM [inhibitor, partial curve, poor fit]"}
    ]}
  ]
}
